Substitutions are numbered along the chain they refer to.
T1: TIGIT (UniProt Q495A1 22-141, limits assumed)
T1 construct: also called T cell immunoreceptor with Ig and ITIM domains; hTIGIT
T1 sequence (looked up): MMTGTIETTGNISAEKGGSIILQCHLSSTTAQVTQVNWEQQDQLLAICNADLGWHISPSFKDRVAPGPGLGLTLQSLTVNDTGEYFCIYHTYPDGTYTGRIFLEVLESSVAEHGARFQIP

B1: TIGIT-31-30 (VHH-Fc) (Fc fusion)
chain: EVQLVESGGGLVQPGGSLRLSCAASGRTYNMGWFRQAPGKEREWVATIYSRSGGSTTYYADSVKGRFTISADNSKNTAYLQMNSLKPEDTAVYYCATYGYDSGRYYSWGQGTLVTVSSGGGGS[in this place human IgG1 Fc with C220S (EU numbers)]
B2: TIGIT-31-19 (VHH-Fc) (Fc fusion)
chain: EVQLVESGGGLVQPGGSLRLSCAASGRTFGNYAMGWFRQAPGKEREFVADIRSSAGRTYYADSVKGRFTISADNSKNTAYLQMNSLKPEDTAVYYCAASEWGGSDYDHDYDWGQGTLVTVSSGGGGS[in this place human IgG1 Fc with C220S (EU numbers)]
B3: TIGIT-31-29 (VHH-Fc) (Fc fusion)
chain: EVQLVESGGGLVQPGGSLRLSCAASGRSRMGWFRQAPGKEREFVATISWSGSAVYADSVKGRFTISADNSKNTAYLQMNSLKPEDTAVYYCAAGGRYSARVWGQGTLVTVSSGGGGS[in this place human IgG1 Fc with C220S (EU numbers)]
B4: TIGIT-31-24 (VHH-Fc) (Fc fusion)
chain: EVQLVESGGGLVQPGGSLRLSCAASGRTFSMGWFRQAPGKEREFVATVRWGTSSTYYADSVKGRFTISADNSKNTAYLQMNSLKPEDTAVYYCAAETFGSGSSLMSEYDWGQGTLVTVSSGGGGS[in this place human IgG1 Fc with C220S (EU numbers)]
B5: TIGIT-31-9 (VHH-Fc) (Fc fusion)
chain: EVQLVESGGGLVQPGGSLRLSCAASGGTLSGNAMGWFRQAPGKEREWVASIYWSSGNTYYADSVKGRFTISADNSKNTAYLQMNSLKPEDTAVYYCANSNKPKFDWGQGTLVTVSSGGGGS[in this place human IgG1 Fc with C220S (EU numbers)]
B6: TIGIT-31-23 (VHH-Fc) (Fc fusion)
chain: B5 chain with G27F, L29F, G31N, N32S, A33G
B7: TIGIT-31-34 (VHH-Fc) (Fc fusion)
chain: EVQLVESGGGLVQPGGSLRLSCAASGRSRYGMGWFRQAPGKEREFVSAISWSGISTYYADSVKGRFTISADNSKNTAYLQMNSLKPEDTAVYYCAATQWGSSGWKQARWYDWGQGTLVTVSSGGGGS[in this place human IgG1 Fc with C220S (EU numbers)]
B8: TIGIT-31-15 (VHH-Fc) (Fc fusion)
chain: EVQLVESGGGLVQPGGSLRLSCAASGFTFSTYGMGWFRQAPGKEREFVAAISWSGVSKHYADSVKGRFTISADNSKNTAYLQMNSLKPEDTAVYYCASSPYGPLYRSTHYYDWGQGTLVTVSSGGGGS[in this place human IgG1 Fc with C220S (EU numbers)]
B9: TIGIT-31-10 (VHH-Fc) (Fc fusion)
chain: B8 chain with F27H, T31S, F47L, V56I, K58T, H59I
B10: TIGIT-31-27 (VHH-Fc) (Fc fusion)
chain: B8 chain with S30G, T31H, G33A, K58T, H59Y
B11: TIGIT-31-7 (VHH-Fc) (Fc fusion)
chain: EVQLVESGGGLVQPGGSLRLSCAASGSTFSINRMGWFRQAPGKEREWVATIVHSGGHSGGTSYYADSVKGRFTISADNSKNTAYLQMNSLKPEDTAVYYCAARPYTRPGSMWVSSLYDWGQGTLVTVSSGGGGS[in this place human IgG1 Fc with C220S (EU numbers)]
B12: TIGIT-31-25 (VHH-Fc) (Fc fusion)
chain: EVQLVESGGGLVQPGGSLRLSCAASGNIFSRYIMGWFRQAPGKEREWVAGISNGGTTKYADSVKGRFTISADNSKNTAYLQMNSLKPEDTAVYYCAQGWKIVPTNWGQGTLVTVSSGGGGS[in this place human IgG1 Fc with C220S (EU numbers)]
B13: TIGIT-31-22 (VHH-Fc) (Fc fusion)
chain: EVQLVESGGGLVQPGGSLRLSCAASGRTFSTHAMGWFRQAPGKEREFVAAITPINWGGRGTHYADSVKGRFTISADNSKNTAYLQMNSLKPEDNAVYYCAAKRLRSGRWTWGQGTLVTVSSGGGGS[in this place human IgG1 Fc with C220S (EU numbers)]
B14: TIGIT-31-28 (VHH-Fc) (Fc fusion)
chain: EVQLVESGGGLVQPGGSLRLSCAASGRTFSSYHMGWFRQAPGKERELVALISRVGVTSYADSVKGRFTISADNSKNTAYLQMNSLKPEDTAVYYCAAVRTYGSATYDWGQGTLVTVSSGGGGS[in this place human IgG1 Fc with C220S (EU numbers)]
B15: TIGIT-31-14 (VHH-Fc) (Fc fusion)
chain: EVQLVESGGGLVQPGGSLRLSCAASGYTFRAYVMGWFRQAPGKERELVAVINYRGSSLKYADSVKGRFTISADNSKNTAYLQMNSLKPEDTAVYYCAASEWGGSDYDHDYDWGQGTLVTVSSGGGGS[in this place human IgG1 Fc with C220S (EU numbers)]
B16: TIGIT-31-03 (VHH-Fc) (Fc fusion)
chain: EVQLVESGGGLVQPGGSLRLSCAASGFTFSGNWMGWFRQAPGKEREFVASISSSGISTYYADSVKGRFTISADNSKNTAYLQMNSLKPEDTAVYYCAADVWYGSTWRNWGQGTLVTVSSGGGGS[in this place human IgG1 Fc with C220S (EU numbers)]
B17: TIGIT-31-21 (VHH-Fc) (Fc fusion)
chain: B16 chain with F29L, T69I
B18: TIGIT-31-41 (VHH-Fc) (Fc fusion)
chain: EVQLVESGGGLVQPGGSLRLSCAASGGTLSSYIMGWFRQAPGKEREFVAAISGWSGGTTNYADSVKGRFTISADNSKNTAYLQMNSLKPEDTAVYYCAAARFAPGSRGYDWGQGTLVTVSSGGGGS[in this place human IgG1 Fc with C220S (EU numbers)]

The binders below were run against T1, TIGIT (assay: ELISA).

Row | Binder | ELISA
1 | B1 | 3.2
2 | B2 | 6.7
3 | B3 | 7.4
4 | B4 | 3.1
5 | B5 | 9.7
6 | B6 | 6.6
7 | B7 | 6
8 | B8 | 6.2
9 | B9 | 12.3
10 | B10 | 8.1
11 | B11 | 7.9
12 | B12 | 6.2
13 | B13 | 7.4
14 | B14 | 3.7
15 | B15 | 5.8
16 | B16 | 9.5
17 | B17 | 9.4
18 | B18 | 5.8

What follows are binders tested against T1, TIGIT (assay: SPR (Carterra), VHH-Fc).

Row | Binder | Kd [nM] | koff [s⁻¹] | kon [M⁻¹ s⁻¹]
19 | B1 | 93 | 93 | 1e+09
20 | B2 | 125 | 130 | 1e+09
21 | B3 | 1680 | 0.00054 | 320
22 | B4 | 75 | 0.066 | 880000
23 | B5 | 131 | 0.024 | 190000
24 | B6 | 127 | 0.049 | 380000
25 | B7 | 70 | 0.0039 | 55000
26 | B8 | 88 | 2 | 2.2e+07
27 | B9 | 94 | 0.12 | 1.3e+06
28 | B10 | 96 | 96 | 1e+09
29 | B11 | 275 | 0.025 | 91000
30 | B12 | 154 | 86 | 5.6e+08
31 | B13 | 4620 | 0.00028 | 
32 | B14 | 234 | 0.1 | 440000
33 | B15 | 114 | 0.011 | 100000
34 | B16 | 116 | 0.03 | 260000
35 | B17 | 122 | 0.02 | 160000
36 | B18 | 750 | 1 | 1.3e+06

Source: patent publication US20260184782A1 (TWIST BIOSCIENCE, published 2026)
